This is an account of results in the supplement of paper PMC5655136.

These are enrichments in a pooled selection; single values are uncertain.
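Note: shRNA barcodes quantified by deep sequencing of PCR amplicons from cellular DNA, counts expressed as percent of each subpool, ratio averaged over two biological duplicates.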

For the data set, the system named is NB7. Briefly: fold depletion of shRNA, plasmid library share / infected cells without Dox share (9 days) (ratio); higher = more depleted after infection (more toxic, leaky expression from a Tet-inducible vector; NB7 is a neuroblastoma line without caspase-8). The note with it: shRNA pool: CD95 ORF + CD95 3'UTR + Venus libraries.
TATCCTACGTTTAAATATCTT: the “fold depletion of shRNA” value is 0.622.
As for AACAGAAAGTTCAACTGCTTC, the “fold depletion of shRNA” value worked out at 1.26.
For TTTGTCTTCTTCTTTTGCCAA the value was 1.95.
On to AATTCCACTAATTGTTTGGGT, for which the “fold depletion of shRNA” value was 1.23.
With TAAAACCTGCTACAAATGGCA, the “fold depletion of shRNA” value came out at 11.5.
As for TCTTCTTCAAGGACGACGGCA, the “fold depletion of shRNA” value was determined as 1.35.
For the sequence CAAGGCCAACTTCAAGATCCG, the “fold depletion of shRNA” value is 0.861.
On to GTAATCAGTGTATGTTAGTAC, for which the “fold depletion of shRNA” value turned out to be 1.51.
Next, CAAGCTGCCCGTGCCCTGGCC: 0.552; CCTACGGCAAGCTGACCCTGA: 0.676; ACTCTACTGTATGTGAACACT: 0.986.
Consider CGGACCCAGAATACCAAGTGC, for which the “fold depletion of shRNA” value amounted to 1.01.
For the sequence CATTTTGAGCAGGAGAGTATT, the “fold depletion of shRNA” value was found to be 1.29.
Consider AGAAATGAAATCCAAAGCTTG, for which the “fold depletion of shRNA” value amounted to 1.41.
Take ACTAGTGACTCAGAAAATTCA: the “fold depletion of shRNA” value was 1.04.
As for CACTTTGCCTCTAAATTACCT, the “fold depletion of shRNA” value was determined as 0.723.
CTAACCCCACTCTATGAATCA: the “fold depletion of shRNA” value was determined as 3.26.
Take AAAGTGTTAATGCCCAAGTGA: the “fold depletion of shRNA” value came to 4.71.
For GCAATTAGTGTTTGAAAAGAT the value was 1.37; for AATTCAAACTTCAGAAATGAA, 0.854.
Regarding CTGGGTACATTTTATCATTTA, the “fold depletion of shRNA” value worked out at 0.861.
As for CCGCCACAACATCGAGGACGG, the “fold depletion of shRNA” value came out at 1.02.
For GTTTATTGGTGTCATATTATA the value was 1.15.
Turning to TGCAGAATTTAAATAAGGCTC, the “fold depletion of shRNA” value worked out at 1.3.
For the sequence CAAGTTAAAGGCTTTGTTCGA, the “fold depletion of shRNA” value stood at 0.592.
For GATGAGATCAAGAATGACAAT the value was 1.38; for CGTAAACGGCCACAAGTTCAG, 0.706; for ACTGCGTGCCCTGCCAAGAAG, 0.705.
As for ATGCCACCTACGGCAAGCTGA, the “fold depletion of shRNA” value came out at 1.52.
In the case of AACCACTACCTGAGCTACCAG, the “fold depletion of shRNA” value was found to be 2.43.
As to TGTTCACCGGGGTGGTGCCCA, the “fold depletion of shRNA” value amounted to 1.92.
For the sequence GTAACTCTACTGTATGTGAAC, the “fold depletion of shRNA” value is 0.986.
In the case of AGCTCGCCGACCACTACCAGC, the “fold depletion of shRNA” value was determined as 0.657.
For CCCAGAATACCAAGTGCAGAT the value was 1.84; for CAGTTCTGAGTATATGCAATT, 1.36; for AGAACTTCCATTTATGGAGGA, 1.89.
For the sequence AGGGACTGCACAGTCAATGGG, the “fold depletion of shRNA” value came out at 0.763.
With CAGAAAGTTCAACTGCTTCGT, the “fold depletion of shRNA” value came out at 1.78.
On to CCCTGAAGCTGATCTGCACCA, for which the “fold depletion of shRNA” value turned out to be 1.02.
Consider ACAAAGCCCATTTTTCTTCCA, for which the “fold depletion of shRNA” value amounted to 1.65.
In the case of CTGTTCACCGGGGTGGTGCCC, the “fold depletion of shRNA” value was 0.599.
Next, AAACGGCCACAAGTTCAGCGT: 3.48; AGAAAGGAAGTACAGAAAACA: 0.892; AAAAGTGTTAATGCCCAAGTG: 2.02.
For the sequence TTTATATTTCTGTAAATGTAA, the “fold depletion of shRNA” value amounted to 0.832.
As to GAAGAGAAAGGAAGTACAGAA, the “fold depletion of shRNA” value was 1.03.
With GGAAAACCAAGGTTCTCATGA, the “fold depletion of shRNA” value was 1.84.
As for ACATTTTATCATTTATTAGCG, the “fold depletion of shRNA” value is 1.21.
With CCTTGTGTTTGGAATTATAAA, the “fold depletion of shRNA” value is 0.69.
Take GCCAACTTCAAGATCCGCCAC: the “fold depletion of shRNA” value is 1.28.
Turning to TATTTGTAGATTTTTAATATC, the “fold depletion of shRNA” value stood at 0.857.
Turning to TACGTAATTAAATAATGTTTT, the “fold depletion of shRNA” value worked out at 0.851.
For TATGTAAAGTATATGTATTTG, the “fold depletion of shRNA” value turned out to be 0.912.
TATGTGTATGCATTTTACTGG: the “fold depletion of shRNA” value is 1.12.
Turning to GTTTAAAATCTAGTTGGGAAA, the “fold depletion of shRNA” value was found to be 1.48.
Consider GGCCCCGTGCTGCTGCCCGAC, for which the “fold depletion of shRNA” value was found to be 0.417.
For TGGTGAACCGCATCGAGCTGA, the “fold depletion of shRNA” value is 1.12.
With ATTTTTCTTCCAAATGCAGAA, the “fold depletion of shRNA” value is 0.755.
AAAAAATACTTAATAGTCCAC: the “fold depletion of shRNA” value turned out to be 2.44.
Next, TCGTAATTGGCATCAACTTCA: 1.83.
For AGGACATTACTAGTGACTCAG, the “fold depletion of shRNA” value came to 1.23.
ATAGCTGGCTGTAAATACTGC: the “fold depletion of shRNA” value was found to be 1.06.
CAAATGTGAACATGGAATCAT: the “fold depletion of shRNA” value was determined as 0.913.
For the sequence ACGGCAACTACAAGACCCGCG, the “fold depletion of shRNA” value worked out at 1.38.
For the sequence ATCTGCACCACCGGCAAGCTG, the “fold depletion of shRNA” value came out at 2.45.
For the sequence CACAAGTTCAGCGTGTCCGGC, the “fold depletion of shRNA” value came to 1.49.
For the sequence ACTTTTTTTGTAACTCTACTG, the “fold depletion of shRNA” value came to 0.766.
Turning to TTTTTACTGGGTACATTTTAT, the “fold depletion of shRNA” value stood at 1.88.
TTCAAGTCCGCCATGCCCGAA: the “fold depletion of shRNA” value was determined as 0.855.
In the case of ACCCCCATCGGCGACGGCCCC, the “fold depletion of shRNA” value was determined as 0.459.
